Source: PubChem BioAssay AID902 (National Center for Advancing Translational Sciences (NCATS), 2007)
“And” between values parts separate entries of the source, which are not always exact repeats. Identical values can stand only once. About 1,900 (1.5%) of roughly 130,000 compounds were called active. The inconclusive results got no clear call from the source; some entries with a clear call stand among them for comparison. Calls follow the shape of the dose curve; as a rule, active = well fitted cell-killing curve with a large enough effect; inconclusive = small, poorly fitted or top-dose-only effect; inactive = no such curve, though single readings can be large or run the other way. Where the call is inconclusive, the potency comes from a doubtful curve fit.

Experiment: qHTS Screen for Compounds that Selectively Target Cancer Cells with p53 Mutations: Cytotoxicity of p53ts Cells at the Nonpermissive Temperature; also: nearly all actives have a fitted effect of over 55% in size
Conditions: H1299-p53A138V viability at 39C, ATP luminescence, 24 h; activity change, negative = cell killing: at 46.1 µM (top of the series)
Description: NIH Chemical Genomics Center [NCGC] NIH Molecular Libraries Screening Centers Network [MLSCN] MLSCN Grant: 1 X01 MH079844-01 Assay Submitter (PI): Dr. SUN, YI, University of Michigan NCGC Assay Overview: Synthetic Lethal Screen for Compounds to Kill Cancer Cells with p53 Mutation. Tumor suppressor gene p53 serves as a major cellular barrier against tumorigenesis. […] The goal of this screening is to identify small molecule probes that selectively kill cancer cells with mutations in p53. This screening was carried out using two lines of H1299 lung cancer cells. The H1299-p53 A138V line express a temperature sensitive p53 mutant (p53ts) in which the mutant p53 protein (A138V) is in the mutant confirmation when grown at 39C (the nonpermissive temperature) and in the wild type conformation when grown at 32C (the permissive temperature). A H1299-neo line (p53 null) grown at both 39C and 32C were used as counter-screens to filter out false positive associated with temperature shifting. The small molecular compounds that selectively target mutant p53-containing cancer cells were selected as candidate probes for further study. A cytotoxicity assay based on the measurement of ATP contents in cells was used in this screen. Concentration-responses of all the compounds in the library collection were determined in qHTS using the cell lines and temperature conditions as above.
NCGC Assay Protocol Summary: Both the H1299-p53A138V and H1299-neo cell lines were provided by Dr.Yi Sun, a PI at the University Michigan. The cells were maintained and cultured at 37C. The resuspended frozen cells were used to plate the cells in the 1536-well assay plates at a density of 600 cells per well in 5 ul medium. The assay plates with the cells were incubated at 37C for 16 to 30 hours before the experiments. The library compounds in DMSO solution were added to the cells in assay plates and incubated 24 hours at 39C (for mutant p53 conformation) or 32C (for normal p53 conformation as control). An ATP_lite assay kit (PerkinElmer) was used to determine the cell viability. Tomaxifen (100uM) was used as the positive control for cell killing. Data were normalized to the controls for basal activity (DMSO only) and 100% killing (100uM tamoxifen). AC50 values were determined from concentration-response data modeled with the standard Hill equation. P53 assay protocol: 1. Reagent; 5 uL H1299-p53A138V or H1299-neo cell cells/well 2. Time; overnight; 37C incubation 3. Compounds; 23 nL; 5.9 nM to 46 uM 4. Controls; 23 nL; Tamoxifen 100 uM 5. Time; 24 hr; 39C incubation 6. Reagent; 3 uL; ATP_Lite reagent 7. Time; 20 min; Room Temperature 8. Detection; Luminescence; Viewlux plate reader Keywords: p53, synthetic lethal, cancer, cell viability, cytotoxicity, H1299 cell line, luminescence, MLSMR, MLSCN, NIH Roadmap, qHTS, NCGC
% is scaled to controls: 0 for no effect and ±100 for the full control effect; potency is read from the fitted curve at half-maximal effect; tags tell the direction and shape of the fitted curve.

| Compound | Potency | activity change, negative = cell killing |
| --- | --- | --- |
| COC(=O)c1ccc(NC(=O)CCc2c(C)nn(-c3ccc(N4CCCCC4)nn3)c2C)cc1 | inconclusive: 20 µM [cytotoxic, partial curve] | – |
| Cc1cccc(Cn2c(Cc3ccccc3)nc3ccccc32)c1 | inconclusive: 20 µM [cytotoxic, single point] | – |
| COc1ccc(CCN2CCC(CNC(=O)c3cnn(-c4cccc(Cl)c4)c3C3CCN(C(=O)OC(C)(C)C)CC3)CC2)cc1 | inconclusive: 15.8 µM [cytotoxic, single point] | – |
| Cc1cccc(NC(=O)/C(C#N)=C/c2ccc(C)o2)c1 | inconclusive: 35.5 µM [cytotoxic, single point] | – |
| CC(C)NC(=O)c1cc2c(s1)CCCC2 | inconclusive: 11.2 µM [cytotoxic, partial curve, poor fit] | – |
| CCC(=O)Nc1cccc(-c2nc3cc(C)ccc3o2)c1 | inconclusive: 7.94 µM [cytotoxic, partial curve] | – |
| O=C(CSc1oc(-c2ccc(F)cc2)nc1S(=O)(=O)c1ccc(Br)cc1)NC1CCCCC1 | inconclusive: 0.794 µM [cytotoxic, full curve, poor fit] | – |
| O=C(O)C1C2C=CC(C2)C1C(=O)NCCc1cccc(Cl)c1 (stereo not given) | inconclusive: 35.5 µM [cytotoxic, single point] | – |
| CCN1CCN(c2ncnc3c2cnn3-c2cc(Cl)ccc2C)CC1 | inconclusive: 7.94 µM [cytotoxic, partial curve] | – |
| CCOC(=O)c1c(S(=O)(=O)NCC(=O)N(C)Cc2ccccc2)c(C)n(C)c1C | – | inactive: -2.45% |
| CCC[C@@H]1C[C@@]1(CCC)[C@@H](NP(=O)(c1ccccc1)c1ccccc1)c1ccc(C(=O)OC)cc1 | inconclusive: 31.6 µM [cytotoxic, single point] | – |
| Cn1cnc([N+](=O)[O-])c1Sc1ncnc2nc[nH]c12 | inconclusive: 3.16 µM [cytotoxic, full curve] and inconclusive: 794 nM [cytotoxic, full curve, poor fit] | – |
| Cc1ccc(CNC(=O)CN2C(=O)CC(c3ccc(C)c(C)c3)=Nc3ccccc32)cc1 | inconclusive: 25.1 µM [cytotoxic, single point] | – |
| Cc1cccc(CN2CCC(CNc3ncnc4onc(-c5ccc(Cl)cc5)c34)CC2)c1 | inconclusive: 31.6 µM [cytotoxic, single point] | – |
| CC(OC(=O)CNC(=O)c1ccc2c(c1)OCO2)C(=O)NCCC1=CCCCC1 (stereo not given) | – | inactive: 3.94% |
| CCC(C(=O)C(C)C(O)C(C)CCc1ccc(C)c(O)c1C(=O)O)C1OC(CC)(C2CC[C@@](O)(CC)C(C)O2)CC1C (stereo not given in full) | inconclusive: 25.1 µM [cytotoxic, single point] | – |
| COc1ccc(CNC(=O)CCNS(=O)(=O)c2ccc3c(c2)CCCC(=O)N3)cc1 | – | inactive: -6.95% |
| CCn1c2ccccc2c2nc3ccccc3nc21 | inconclusive: 15.8 µM [cytotoxic, single point] | – |
| CC1=C(C(=O)OC2CCCC2)C(c2ccccc2C(F)(F)F)CC(=O)N1 (stereo not given) | – | inactive: -24.3% |
| Cn1cccc1C(=O)Nc1nc(-c2ccccn2)cs1 | inconclusive: 10 µM [cytotoxic, partial curve] | – |

| Compound | Potency | activity change, negative = cell killing |
| --- | --- | --- |
| CCCCCCCCCCCCCCC/C=C\[C@H](O)[C@@H](NC(=O)CCCCCCCCCCCCC)OC (tested in a mixture with another compound) | inconclusive: 25.1 µM [cytotoxic, partial curve, poor fit] | – |
| Cc1ccc(CN2COc3c(Cl)cc4c(-c5ccccc5)cc(=O)oc4c3C2)cc1 | – | inactive: -7.59% |
| Cc1ccc(OCC(=O)Nc2cccc(C(=O)OCc3cc(=O)n4c(C)csc4n3)c2)cc1 | – | inconclusive: -39.7% [cytotoxic] |
| Cc1ccc(CNC(=O)CN2N=C(c3ccccc3)CCC2=O)cc1 | inconclusive: 0.0079 µM [cytotoxic, full curve, poor fit] | – |
| COc1cc(COc2cc(N)c(Cl)cc2C(=O)CCC2CCN(CCNS(C)(=O)=O)CC2)cc(OC)c1 | active: 31.6 µM | – |
| COC(=O)c1[nH]c2cccc(C)c2c1NC(=O)CN1CCN(C(=O)c2ccco2)CC1 | – | inactive: 14.6% |
| COc1ccc(C(=O)N2CCN(C(=O)c3cc(OC)c(OC)c(OC)c3)CC2)cc1 | – | inactive: 4.47% |
| CC(C)c1ccc(CNc2n[nH]c(-c3ccco3)n2)cc1 | inconclusive: 31.6 µM [cytotoxic, single point] | – |
| Cc1ccc(C(=O)c2oc3ccccc3c2NC(=O)Cc2ccccc2)cc1 | inconclusive: 31.6 µM [cytotoxic, single point] | – |
| Cc1cc(NC(=O)c2ccc(NC(=O)CCS(=O)(=O)c3cccs3)cc2)ccc1Br | inconclusive: 25.1 µM [cytotoxic, single point] | – |
| Cc1c(CCNC(=O)C(C)(C)C)sc2nc(-c3ccc(F)cc3)nn12 | inconclusive: 6.31 µM [cytotoxic, full curve, poor fit] | – |
| Cc1ccccc1-c1nc(CN2CCC(C(=O)N3CCC(C(N)=O)CC3)CC2)c(C)o1 | – | inactive: 14.3% |
| CN(Cc1ccccc1)c1ncnc2c1cnn2-c1ccccc1 | inconclusive: 15.8 µM [cytotoxic, single point] | – |
| FC(F)(F)c1ccccc1-c1ccc2ncnc(N3CCOCC3)c2c1 | inconclusive: 31.6 µM [cytotoxic, single point] | – |
| O=C(Nc1ccc(C(F)(F)F)cc1)C(Cc1ccccc1)n1cccc1 (stereo not given) | active: 20 µM | – |
| O=C(NCCCN1CCN(c2ccccc2F)CC1)c1ccc2nc(N3CCCCC3)sc2c1 | inconclusive: 12.6 µM [cytotoxic, single point] | – |
| Cc1ccc(NS(=O)(=O)c2ccc(-c3cc(C)no3)cc2)c(Br)c1 | inconclusive: 20 µM [cytotoxic, single point] | – |
| Cc1ccc(CCNC(=O)c2c(C)nn(-c3ccc(F)cc3)c2-n2cccc2)cc1 | – | inactive: -23% |
| CN(C)C(=O)c1ccc(-c2nc(N3CCOCC3)c3ccccc3n2)cc1 | – | inactive: -9.75% |
| O=C(CSc1nccn1Cc1ccccc1)Nc1ccc2c(c1)OCCO2 | inconclusive: 3.16 µM [cytotoxic, partial curve] | – |
